Measured values as given in ChEMBL document CHEMBL1201862, “PubChem BioAssay data set” (2004).

The compounds below were run on NCI-H322M (assay: DTP human tumour cell line panel, 48 h).

Row | Compound | GI50
1 | CCCCCCC1NN(C(C)=O)C(CCCCCC)NN1C(C)=O (stereo not drawn) | inactive: > 100 µM
2 | O=[N+]([O-])c1ccc2nc(=S)[nH]n2c1 | inactive: > 100 µM
3 | C[C@H]1[C@H](C)N(Cc2ccccc2)P(=O)(C(O)/C=C/c2ccccc2)N1Cc1ccccc1 (stereo partly drawn) | inactive: 9.71 µM
4 | CCn1c(-c2ccc(OC)cc2)nc2c1C(=O)c1ccccc1C2=O | inactive: > 100 µM
5 | Nc1ccn(CC(O)c2cc3ccccc3[nH]2)c(=O)n1 (stereo not drawn) | inactive: > 100 µM
6 | COc1cc2c(c(OC)c1OC)-c1ccc(SC)cc1C(O)CC2 (stereo not drawn) | inactive: 41.5 µM
7 | COC(=O)CC1N/C(=N\C#N)N(CCc2c[nH]c3ccccc23)C1=O (stereo not drawn) | inactive: > 100 µM
8 | Cc1cc2c3ccccc3n(C)c2c2c1C(=O)C=CC2=O | inactive: 21.5 µM
9 | COCc1nc2c(OC)c(-c3nc4ccc(N5CCN(C)CC5)cc4[nH]3)cc(OC)c2[nH]1 | inactive: 75.2 µM
10 | O=C1NC(c2cccc3ccccc23)Nc2ccc(O)cc21 (stereo not drawn) | inactive: 67.6 µM
11 | CC1(CO)OC1COCc1ccccc1 (stereo not drawn) | inactive: > 100 µM
12 | CCCCc1c2c(nc3c1CCCC3=O)CCCC2 | inactive: > 100 µM
13 | CN(C)CCNC(=O)c1ccccc1Nc1c(Cl)cccc1Cl | inactive: 15.1 µM
14 | Brc1ccc(/N=N/N2CCCCC2)cc1 | inactive: > 100 µM
15 | O=P(Oc1ccc(Cl)cc1)(Oc1ccc(Cl)cc1)N1CC1 | inactive: > 10 µM
16 | S=c1ssc2c3ssc(=S)c3n(Cc3ccccc3)c12 | inactive: > 100 µM
17 | COc1cc2c(c(OC(C)=O)c1OC(C)=O)-c1ccc(SC)c(=O)cc1C(NC(C)=O)CC2 (stereo not drawn) | inactive: 2.86 µM
18 | C=CCN1C[C@H](C)N([C@@H](c2ccc(C(=O)N3CCCCC3)cc2)c2cccc(OC)c2)C[C@H]1C | inactive: 78 µM
19 | CCOC(=O)C1(Cc2ccc3ccccc3c2)CCCCC(=O)N1 (stereo not drawn) | inactive: > 100 µM
20 | COc1ccc(C(N)=O)c(OC)c1OCc1ccccc1 | inactive: > 100 µM
21 | COc1ccccc1-c1nc[nH]c1-c1ccccc1OC | inactive: 29.9 µM
22 | O=c1[nH]n(Cc2ccccc2Cl)c2ccc([N+](=O)[O-])cc12 | inactive: > 100 µM
23 | CCOC(=O)NC(OC)(C(F)(F)F)C(F)(F)F | inactive: > 100 µM
24 | O=C1CCC(=O)C(C(=O)CCC(=O)Nc2cccc(Cl)c2)C1 (stereo not drawn) | inactive: > 100 µM

Row | Compound | GI50
25 | C=C(c1ccccc1N)[C@@]1(O)C[C@H](/C(=C\C)CO)C[C@@H]1NCc1ccccc1 | inactive: 45 µM
26 | COc1ccc2nc3ccc(OC)cc3c([S+]([O-])Cc3ccc([N+](=O)[O-])cc3)c2c1 (stereo not drawn) | inactive: 18.6 µM
27 | CCCCCCCCCCCCc1ccc(S(=O)(=O)O)cc1 | inactive: > 100 µM
28 | O=C(O)CN1C(=O)CN=C(c2ccccn2)c2cc(Cl)ccc21 | inactive: > 100 µM
29 | Cc1ccc(S(=O)(=O)NC(=O)NCC(N)=O)cc1 | inactive: > 100 µM
30 | CCc1n[nH]c(=O)n1CCO | inactive: > 100 µM
31 | CN(CCn1cnc2c1c(=O)n(C)c(=O)n2C)C1CCCCC1 | inactive: > 100 µM
32 | CCOC(=O)NC(Nc1ccc(Cl)cn1)(C(F)(F)F)C(F)(F)F | inactive: > 100 µM
33 | COC(CC1(CCNc2ccccc2)C(=O)N(COCC[Si](C)(C)C)c2ccccc21)OC (stereo not drawn) | inactive: 15.8 µM
34 | CC1=C(C)C(=O)c2c(cc3c4ccccc4ccn23)C1=O | inactive: > 100 µM
35 | CS(=O)(=O)c1nc(Cl)c(Cl)c(C#N)c1Cl | inactive: 17.7 µM
36 | CN(C)CCC(/C=C/c1ccccc1)=N\Nc1ccccc1 | inactive: 10.6 µM
37 | CCOC(=O)c1sc2nc(SC)nc3c2c1NCN3c1ccc2c(c1)OCCCO2 | inactive: 7.52 µM
38 | O=C1N=C(c2ccccc2)OC1C(=O)c1ccccc1 (stereo not drawn) | inactive: > 100 µM
39 | COC(=O)[C@H](Cc1ccccc1)NC(=O)N1CCCN(C(=O)N[C@@H](Cc2ccccc2)C(=O)OC)CCCN(C(=O)N[C@@H](Cc2ccccc2)C(=O)OC)CCC1 | inactive: 14.9 µM
40 | O=C(CCC(=O)Nc1cccc(Cl)c1)CC(=O)c1ccc(Cl)cc1 | inactive: > 100 µM
41 | O=C1CC2(c3ccccc3)ON=C(c3ccccc3)N2c2ccccc2N1 (stereo not drawn) | inactive: 85.3 µM
42 | N=C(N)/N=C(/C=C/c1ccccc1)CC1OC(=O)c2ccccc21 (stereo not drawn) | inactive: > 100 µM
43 | CCCCCCCCCCCCCCCCCCOP1(=O)OCCO1 | inactive: 81.1 µM
44 | Nc1nc(Sc2ccc([N+](=O)[O-])cn2)c2nc[nH]c2n1 | inactive: 13.2 µM
45 | O=C1N(Cc2ccccc2)C2CSCC2N1Cc1ccccc1 (stereo not drawn) | inactive: 57.1 µM
46 | CO/C=C1\OC(=O)C=C1OC | inactive: > 100 µM
47 | CC1(C)O[C@@H](CCl)C[C@@H](C#N)O1 | inactive: > 100 µM
48 | CNC(N)NC | inactive: > 100 µM

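Dose response: 5 concentrations. Exposure: 48 h. Format: 96-well plates. Endpoint: linear interpolation; highest concentration if not reached. Abbreviation: GI50, concentration required for 50% inhibition of growth.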 Active and inactive are the calls of the source. Rule as the data show it: active = GI50 up to about 1.1 µM and inactive = higher.
